# From PMC4336329 (PLoS ONE, 2015)
# Hit rate of the full screen: of about 310,000 compounds, about 2,200 (0.71%) showed an effect of 50% or more. Effects have a minus sign here. The list shows a part of the results.
# Biological target: human ether-à-go-go-related gene (hERG) potassium channel (human, UniProt Q12809)
# Assay: primary screen, population patch clamp on CHO cells stably expressing hERG
# human ether-à-go-go-related gene (hERG) potassium channel, sequence (Q12809 whole entry, looked up): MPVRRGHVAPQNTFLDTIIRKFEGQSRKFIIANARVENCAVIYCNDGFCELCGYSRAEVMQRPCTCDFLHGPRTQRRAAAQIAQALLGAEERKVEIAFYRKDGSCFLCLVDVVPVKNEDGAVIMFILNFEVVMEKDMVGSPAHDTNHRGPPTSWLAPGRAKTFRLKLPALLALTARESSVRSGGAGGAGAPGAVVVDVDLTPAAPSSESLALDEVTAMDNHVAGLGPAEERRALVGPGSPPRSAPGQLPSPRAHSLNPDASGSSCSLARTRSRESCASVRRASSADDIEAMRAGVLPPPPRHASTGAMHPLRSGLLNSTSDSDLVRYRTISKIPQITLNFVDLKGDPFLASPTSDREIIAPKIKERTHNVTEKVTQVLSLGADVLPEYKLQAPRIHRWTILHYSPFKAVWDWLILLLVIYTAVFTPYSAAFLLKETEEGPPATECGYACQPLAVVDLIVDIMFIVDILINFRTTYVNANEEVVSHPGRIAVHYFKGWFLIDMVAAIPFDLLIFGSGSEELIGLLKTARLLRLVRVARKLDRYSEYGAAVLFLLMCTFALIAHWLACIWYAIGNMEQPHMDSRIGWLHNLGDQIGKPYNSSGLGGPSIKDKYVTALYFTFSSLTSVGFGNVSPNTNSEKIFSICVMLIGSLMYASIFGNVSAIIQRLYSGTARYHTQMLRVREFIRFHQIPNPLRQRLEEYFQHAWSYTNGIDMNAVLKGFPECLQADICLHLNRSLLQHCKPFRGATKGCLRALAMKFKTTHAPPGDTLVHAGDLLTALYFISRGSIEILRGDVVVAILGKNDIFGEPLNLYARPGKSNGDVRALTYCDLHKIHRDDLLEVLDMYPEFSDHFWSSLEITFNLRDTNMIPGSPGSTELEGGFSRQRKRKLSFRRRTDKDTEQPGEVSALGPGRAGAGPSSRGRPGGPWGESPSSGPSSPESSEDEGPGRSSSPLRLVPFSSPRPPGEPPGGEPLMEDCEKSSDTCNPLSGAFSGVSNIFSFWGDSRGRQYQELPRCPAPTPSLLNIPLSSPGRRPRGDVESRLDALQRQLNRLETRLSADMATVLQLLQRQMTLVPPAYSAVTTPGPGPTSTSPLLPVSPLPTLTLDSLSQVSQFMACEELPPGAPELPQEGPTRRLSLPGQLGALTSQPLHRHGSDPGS
row,Compound,"hERG current change (%, negative = inhibition) at 1uM [%]"
1,O=C1CC(N2CCN(Cc3ccc(Cl)cc3)CC2)C(=O)N1CCc1ccccc1 (stereo not shown),-13
2,O=C(O)C1CC=CCC1C(=O)NCc1ccc(Cl)c(Cl)c1 (stereo not shown),-1.22
3,CC(=O)c1ccc(NC(=S)Nc2ccc(N3CCOCC3)cc2)cc1.Cl,6.39
4,COc1ccc(-n2c(Cc3cccn3C)nnc2SCC(=O)Nc2cccc(OC)c2)cc1,6.85
5,CC(=O)Oc1c(Cl)c(N2CCOCC2)c(OC(C)=O)c2ccccc12,-9.93
6,CC(C)(C)N1C(=O)c2ccccc2NC(=O)N1Cc1ccccc1,12.1
7,COc1cccc(CN2CCN(C(=O)c3cccs3)CC2)c1OC,8.8
8,Cc1ccc(-c2csc3ncnc(N4CCN(Cc5ccccc5)CC4)c23)cc1,22.9
9,Cc1ncc([N+](=O)[O-])n1CC(=O)NC1CCCC1,4.26
10,COc1ccc(-c2cc(C(=O)NC3=NCCS3)c3ccccc3n2)cc1OC,8.46
11,CNC(=O)C(=O)NCCN1CCN(S(=O)(=O)c2ccc3ccccc3c2)CC1,22.5
12,COc1ccc(OC)c(S(=O)(=O)N2CCCC(C(=O)NCc3ccncc3)C2)c1 (stereo not shown),18.4
13,O=C(O)CCCNS(=O)(=O)c1ccc(Br)s1,1.81
14,CCN(CC)S(=O)(=O)c1ccc2nnn(OCC(=O)Nc3cccc(C#N)c3)c2c1,6.92
15,CCc1cc2c(-c3ccccc3)cc(=O)oc2c(CN2CCOCC2)c1O,14.5
16,Nc1cc(=O)[nH]c(SCc2nc3ccccc3n2Cc2ccccc2)n1,-10.8
17,O=C(Nc1ccccc1C(=O)NCCCn1ccnc1)c1ccc(Cl)cc1Cl,-12.3
18,CCOc1ccc(C(=O)/C=C/Nc2ccc(S(=O)(=O)N=C(N)N)cc2)cc1,12.8
19,CCOc1ccc(NC(=S)N2CCC(NC(=O)c3ccco3)CC2)cc1,13.2
20,Cc1ncc(C23CC4CC(CC(C4)C2)C3)[nH]1,13.8
21,Cc1c(CC(=O)N2CCN(C(=O)C3COc4ccccc4O3)CC2)c(=O)oc2c(C)c(O)ccc12 (stereo not shown),-3.63
22,Cc1ccc(S(=O)(=O)NCCNC(=O)c2cc(OCC(F)(F)F)ccc2OCC(F)(F)F)cc1,9.58

row,Compound,"hERG current change (%, negative = inhibition) at 1uM [%]"
1,COc1cc(/C=N/n2nnnc2N)cc(Cl)c1OC,10.4
2,CN(CCOc1ccccc1)CC(=O)Nc1ccc(Br)cc1F,9.2
3,COc1cc(NC(=O)c2cc([N+](=O)[O-])ccc2NC(=O)CN2CCN(c3ccccn3)CC2)cc(OC)c1,1.59
4,Cc1ncc(CO)c(CNc2ccc(-c3nc4ccccc4[nH]3)cc2)c1O,12.9
5,Cc1ccc(S(=O)(=O)N2CCN(C(=O)CSc3ccc(Cl)cc3)CC2)cc1,15.5
6,COc1ccccc1OCC(=O)NCC(C)NC(=O)COc1ccccc1OC (stereo not shown),9.89
7,COc1ccc(S(=O)(=O)NCCSCc2cccs2)cc1,1.54
8,COc1ccc(Br)cc1CN(C)C(=O)c1ccncc1,9.93
9,CCn1c(SCC(=O)Nc2cccc(F)c2)nnc1-c1cc2cc(Br)ccc2o1,17.8
10,Cc1cccc(Nc2nc(-c3ccc(O)cc3O)cs2)n1,11.2
11,C=CCNc1nc2ccccc2c(=O)[nH]1,10.3
12,CC(=O)n1cc([C@H]2C=C(C(=O)NCc3ccccc3)O[C@@H](OCc3ccc(CO)cc3)C2)c2ccccc21,11.8
13,O=C(CCC(F)(F)F)N1CCCC(N2CCN(c3cccc(Cl)c3)CC2)C1 (stereo not shown),-15.6
14,CCCOc1ccc(CSCCNC(=S)Nc2ccccc2)cc1,10.7
15,COC(=O)CC1=C(C(=O)OC)C2(C(=O)N(C)c3ccccc32)C(C#N)=C(N)O1 (stereo not shown),13.1
16,CC(C)C(NC(=O)c1ccco1)C(=O)OCC(=O)NCCc1ccccc1 (stereo not shown),19.2
17,Cc1ccc(F)cc1NC(=O)c1c(-c2ccccc2)noc1C,8.76
18,O=C(Nc1ccc(S(=O)(=O)N2CCCCCC2)cc1)c1c(F)cccc1F,9.45
19,CCOc1ccc(NS(=O)(=O)c2ccc(C(=O)NCC(c3cccs3)N3CCOCC3)cc2)cc1 (stereo not shown),-2.65
20,CC(C)COP(=O)(c1ccc(N(C)C)cc1)C(Nc1ccccc1)c1cccnc1 (stereo not shown),4.07
21,O=C(NC1CCCCC1)Oc1cc2oc(=O)sc2cc1Br,11.5
22,CCOC(=O)CSC1=C(C#N)C(c2ccc(C)cc2)C(C(=O)OC)C(=O)N1 (stereo not shown),14.4

row,Compound,"hERG current change (%, negative = inhibition) at 1uM [%]"
1,Cc1ccc(N2CCN(C(=O)c3cccs3)CC2)c(C)c1,-0.116
2,Cn1c(=O)c(NCCc2ccccc2)c2c3c(cccc31)C(=O)c1ccccc1-2,9.08
3,Cc1ccc(S(=O)(=O)NCc2ccc(C(=O)NCc3cccnc3)cc2)cc1,12.4
4,CN1CCCc2cc(C#N)c(=O)[nH]c21,-2.17
5,Cc1ccc(Cl)cc1NC(=O)NCc1ccccn1,8.39
6,Cc1cccc(NC(=O)CSc2nnc(-c3n[nH]c4ccccc34)o2)c1,6.6
7,N#Cc1ccccc1N=Cc1ccc(Br)cc1,10.3
8,CC1CCCC(NC(=O)COC(=O)c2ccccc2Sc2ccccc2C#N)C1C (stereo not shown),-0.154
9,CCn1c(-c2nn(C)cc2Cl)n[nH]c1=S,17.7
10,CCCCNC(=O)NNC(=O)c1cc(C)on1,9.97
11,COC(=O)COc1cccc(NS(=O)(=O)c2cccc([N+](=O)[O-])c2)c1,20.2
12,Cc1ccc(OCC(=O)N(Cc2ccc(N(C)C)cc2)C2CCS(=O)(=O)C2)cc1 (stereo not shown),12.8
13,COc1ccc(NC(=O)Nc2ccc(C(C)C)cc2)cc1,12.4
14,CCCCc1ccc(S(=O)(=O)NCCc2ccncc2)cc1,-6.17
15,Cc1cc(NC(=O)c2cncc(Br)c2)ccc1NC(=O)c1cc2ccccc2o1,5.92
16,CCN/C=C(\C#N)S(=O)(=O)c1ccc(Br)cc1,10.3
17,CCC(C)[C@H](N)c1nnc(SCC(=O)c2ccc(Cl)cc2)o1 (stereo partly shown),-16.1
18,COc1ccc(S(=O)(=O)Cc2ccc(C(=O)N3CCN(c4ccccc4)CC3)o2)cc1,-9.91
19,O=C(CNc1ccc(Br)cc1)Nc1cccc(S(=O)(=O)N2CCCC2)c1,-8.73
20,COC(=O)C(C)(C)ONC(=O)Nc1ccccc1[N+](=O)[O-],1.19
21,CN(C)P(=NC(=O)COc1ccc(Cl)cc1Cl)(N(C)C)N(C)C,3.78
22,Cc1ccc(Cl)cc1Nc1nc(-c2cccnc2)cs1,19.9

row,Compound,"hERG current change (%, negative = inhibition) at 1uM [%]"
1,Cc1ccc(S(C)(=O)=NC(=O)c2cc(C)on2)cc1 (stereo not shown),11.7
2,O=C1c2ccccc2-c2onc3ccc(NCCCn4ccnc4)c1c23,0.591
3,COC(=O)Cn1c2nc3ccccc3nc2c2cccc(C)c21,12
4,Cn1c(=O)n(CCc2ccccc2)c(=O)c2c1nc1n2CCCN1Cc1ccccc1,15.6
5,O=[N+]([O-])c1c(Nc2ccc(O)cc2)cc(N2CCOCC2)c2nonc12,5.35
6,CC(=O)Nc1ccc(NC(=S)NC(=O)/C=C/c2ccco2)cc1,8.97
7,Nc1nc(C2CC(=O)OC23CCCCC3)cs1 (stereo not shown),12.5
8,CCN1CCN(CCCN(Cc2cccs2)C(=S)Nc2ccccc2C)CC1,-10.4
9,O=C(NCCNC(=O)C(c1ccccc1)c1ccccc1)c1ccco1,23.6
10,O=C(Cn1c(=O)n(CC2CS2)c2ccccc21)N1CCCCC1 (stereo not shown),6.6
11,CCC(c1nnc(SCC(=O)Nc2cc(C)on2)o1)N(C)C (stereo not shown),16.1
12,CC1CCCN(S(=O)(=O)c2cccc(-c3cn4cccnc4n3)c2)C1 (stereo not shown),-4.53
13,O=C1[C@@H]2Cc3c([nH]c4ccccc34)C(c3ccccc3)N2C(=O)CN1C1CC1 (stereo partly shown),21.8
14,CCCn1c(SC(C)C(=O)N2CCOCC2)nc2ccc(Br)cc2c1=O (stereo not shown),-6.54
15,Cc1cc2nc(-c3ccc(SCC(=O)N4CCc5ccccc54)nc3)[nH]c2cc1C,0.234
16,O=c1cc(-c2ccc(O)cc2)oc2cc(O)cc(O)c12,3.03
17,Cc1cc(C)cc(CSCC(=O)N/N=C/c2ccc(OCC(=O)NCc3ccco3)cc2)c1,-0.66
18,Cc1nnc2c(N3CCN(C(=O)c4ccco4)CC3)nc3ccccc3n12,2.18
19,COc1cccc(CNC(=O)C2CCN(Cc3cnn(-c4ccccc4)c3-n3cccc3)CC2)c1,-44.3
20,Nc1ccc(S(=O)(=O)Nc2ccnn2-c2ccccc2)cc1,5.31
21,CN(Cc1ccccc1F)c1ncnc2sccc12,12.7
22,COC(=O)C1=C(c2c(C)noc2C)C[C@@H]2CC[C@H]1N2C(=O)N1CCc2cc(OC)c(OC)cc2C1,9.99
